# Measurements from PubChem BioAssay (NCATS).
# Inconclusive results are not listed. Calls come from the whole dose curve. The source holds several records for some structures; these can differ, active in one and inactive in another. Not every entry of the source has a single result; some have several. This is not the full list of results. There may be further records. Values given together are repeated measurements in other runs, samples, wells, individuals or studies. Records carry a tag for their origin. A, B and so on number the origins entry by entry.
# Molecular target: Retinoic acid receptor RXR-alpha (Homo sapiens) (UniProt P19793)
# Sequence of UniProt P19793 (P19793 whole entry, looked up): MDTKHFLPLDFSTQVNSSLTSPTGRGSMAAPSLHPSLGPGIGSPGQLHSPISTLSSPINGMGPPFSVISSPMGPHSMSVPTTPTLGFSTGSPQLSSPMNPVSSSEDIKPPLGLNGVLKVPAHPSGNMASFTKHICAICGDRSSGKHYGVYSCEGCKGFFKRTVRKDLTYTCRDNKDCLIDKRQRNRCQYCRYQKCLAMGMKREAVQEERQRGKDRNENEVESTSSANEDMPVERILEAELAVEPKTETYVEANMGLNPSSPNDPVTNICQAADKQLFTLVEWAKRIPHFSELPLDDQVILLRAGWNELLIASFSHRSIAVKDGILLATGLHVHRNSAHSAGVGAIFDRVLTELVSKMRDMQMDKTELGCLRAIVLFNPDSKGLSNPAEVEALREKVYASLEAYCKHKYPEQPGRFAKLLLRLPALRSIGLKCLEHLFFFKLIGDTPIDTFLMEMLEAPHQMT
# Assay: qHTS assay for small molecule agonists of retinoid X receptor alpha signaling (AID 588544)
# Conditions: HEK293T RXRa-UAS-bla, beta-lactamase reporter, 18 h; series mostly up to 76.7 µM
# Potency is the fitted concentration of half-maximal effect.
row,Compound,Potency
1,CN(C)C=O,inactive [sample A] and inactive [sample B] and active: 14.1 µM [sample C]
2,C=CC(=O)NCO,active: 39.8 µM [sample A] and inactive [sample B]
